Some of the results follow. The list includes weakly bound sequences.

The target in the assay is MaxL homodimer (UniProt P61244). The experiment in a line: universal protein-binding microarray (PBM). Conditions: PBS-based mixture, 10 nM His-tagged protein dimer, 2% milk, 200 ng/uL BSA, 50 ng/uL salmon testes DNA, 0.02% TX-100; detection with Alexa 488 anti-His …; high values mean tight binding; most listed sequences are background and not binding sites; double strand, one strand shown.
Sequence of UniProt P61244 (P61244 whole entry): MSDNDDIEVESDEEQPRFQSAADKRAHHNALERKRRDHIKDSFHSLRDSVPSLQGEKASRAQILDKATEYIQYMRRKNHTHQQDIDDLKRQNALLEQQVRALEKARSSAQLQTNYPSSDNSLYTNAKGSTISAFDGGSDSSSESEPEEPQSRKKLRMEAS
GCAAGTAA: the binding signal (normalized occupancy) turned out to be 0.0728.

On to TCAATTAA, for which the binding signal (normalized occupancy) is 0.0721.

Take ATACGCGA: the binding signal (normalized occupancy) is 0.0737.

GACTCCCA: the binding signal (normalized occupancy) is 0.0753.

For TCGTGAGA, the binding signal (normalized occupancy) was determined as 0.0809.

Consider ACATGCGT, for which the binding signal (normalized occupancy) is 0.127.

On to CTCGTGGC, for which the binding signal (normalized occupancy) was 0.119.

For the sequence GCATGACA, the binding signal (normalized occupancy) is 0.088.

For CACTCTGG, the binding signal (normalized occupancy) worked out at 0.0716.

AGGCGTTA: the binding signal (normalized occupancy) was 0.0751.

Turning to CACTTTAA, the binding signal (normalized occupancy) is 0.0746.

For the sequence ATAAAACC, the binding signal (normalized occupancy) was 0.0743.

As to CAACTTCG, the binding signal (normalized occupancy) was 0.0721.

Regarding ATGACCGC, the binding signal (normalized occupancy) worked out at 0.0805.

Turning to CTATTCCA, the binding signal (normalized occupancy) was 0.0808.

Take CTCTTCAC: the binding signal (normalized occupancy) was 0.0783.

As for ATCGAATG, the binding signal (normalized occupancy) amounted to 0.0791.

For the sequence GTCCGGAA, the binding signal (normalized occupancy) was found to be 0.0658.

GAAGCCGC: the binding signal (normalized occupancy) worked out at 0.0703.

Turning to CTGCAAGC, the binding signal (normalized occupancy) came to 0.0718.

For the sequence CAAAACAC, the binding signal (normalized occupancy) turned out to be 0.0759.

For the sequence GGTCGTTA, the binding signal (normalized occupancy) is 0.0762.

ATACGTGG: the binding signal (normalized occupancy) came to 0.0842.

For the sequence CAGGCGCA, the binding signal (normalized occupancy) turned out to be 0.0718.

Take AACTAGTC: the binding signal (normalized occupancy) was determined as 0.0713.

For the sequence ACATACCT, the binding signal (normalized occupancy) stood at 0.0797.

Consider CCGTCGGA, for which the binding signal (normalized occupancy) came to 0.0712.

As to GGCCCTTA, the binding signal (normalized occupancy) is 0.0762.

In the case of CATCGAAC, the binding signal (normalized occupancy) was determined as 0.082.

On to AACCCCTG, for which the binding signal (normalized occupancy) turned out to be 0.0755.

Take CCAGTCTA: the binding signal (normalized occupancy) came to 0.0717.

With GTGACGTA, the binding signal (normalized occupancy) stood at 0.0803.

Regarding GCTGGAAC, the binding signal (normalized occupancy) came to 0.0707.

As for AGTGAGTG, the binding signal (normalized occupancy) was found to be 0.0734.

Turning to CTCACGAA, the binding signal (normalized occupancy) worked out at 0.0733.

For the sequence AAAATCCC, the binding signal (normalized occupancy) stood at 0.0763.

For the sequence CCGTATTA, the binding signal (normalized occupancy) worked out at 0.0751.

As to GGGGTAGA, the binding signal (normalized occupancy) stood at 0.0824.

On to CAGGAAAC, for which the binding signal (normalized occupancy) came to 0.071.

For the sequence GGCCCGCA, the binding signal (normalized occupancy) worked out at 0.0711.

Regarding CATCCCCA, the binding signal (normalized occupancy) was 0.0811.

As to AACCACAA, the binding signal (normalized occupancy) is 0.0762.

As to AATCGGGT, the binding signal (normalized occupancy) was found to be 0.0718.

ACGTGCAC: the binding signal (normalized occupancy) turned out to be 0.113.

Turning to CCAGCACC, the binding signal (normalized occupancy) turned out to be 0.0726.

On to AGGTATCC, for which the binding signal (normalized occupancy) is 0.0786.

With CCCAGCAC, the binding signal (normalized occupancy) came to 0.0816.

As for CACTTGTA, the binding signal (normalized occupancy) is 0.0798.

In the case of CAAAGACA, the binding signal (normalized occupancy) was determined as 0.0767.

In the case of GAGTCAGA, the binding signal (normalized occupancy) worked out at 0.0718.

With GCTACAGC, the binding signal (normalized occupancy) stood at 0.072.

Turning to AAATTCCA, the binding signal (normalized occupancy) is 0.0772.

With GTTGTGTA, the binding signal (normalized occupancy) amounted to 0.08.

Take CTGGGACA: the binding signal (normalized occupancy) was 0.073.

Regarding AGATCTGA, the binding signal (normalized occupancy) is 0.0793.

As for ATTGTGGC, the binding signal (normalized occupancy) stood at 0.0759.

AATAGGCC: the binding signal (normalized occupancy) came out at 0.0758.

With CTGAACAA, the binding signal (normalized occupancy) was 0.0787.

GAAGATAC: the binding signal (normalized occupancy) is 0.0737.

ATAAAGCG: the binding signal (normalized occupancy) was found to be 0.0719.

With CATCAACC, the binding signal (normalized occupancy) was 0.0787.

As for CTGAAGCA, the binding signal (normalized occupancy) was 0.0733.

In the case of CGGTCTGA, the binding signal (normalized occupancy) came to 0.0686.

For AGGAGCCG, the binding signal (normalized occupancy) was 0.0692.

For the sequence GGCCGCGA, the binding signal (normalized occupancy) was found to be 0.0696.

Take GAGCTGAC: the binding signal (normalized occupancy) came to 0.075.

Take GATACTCA: the binding signal (normalized occupancy) was determined as 0.0757.

Turning to GAGTCTTA, the binding signal (normalized occupancy) is 0.0751.

In the case of CCCACAAC, the binding signal (normalized occupancy) is 0.0789.

Consider AGATTACC, for which the binding signal (normalized occupancy) came to 0.0753.

Consider ACTTGTCG, for which the binding signal (normalized occupancy) is 0.0703.

For the sequence AATTGTGT, the binding signal (normalized occupancy) came to 0.0778.

ATTCATCG: the binding signal (normalized occupancy) was determined as 0.0765.

Regarding ACCAAGCC, the binding signal (normalized occupancy) worked out at 0.0728.

With AGTGGTCG, the binding signal (normalized occupancy) stood at 0.0719.

Regarding GACCCGAC, the binding signal (normalized occupancy) was 0.0717.

Take CAACACAC: the binding signal (normalized occupancy) amounted to 0.091.

On to AAGGTAGA, for which the binding signal (normalized occupancy) stood at 0.0772.

As to CTCACACA, the binding signal (normalized occupancy) was 0.0809.

On to GATGTGCC, for which the binding signal (normalized occupancy) was 0.0796.

Take ATTCCAGG: the binding signal (normalized occupancy) turned out to be 0.0758.

For the sequence AGCTAACA, the binding signal (normalized occupancy) came out at 0.0752.

Regarding CGAAGTTA, the binding signal (normalized occupancy) was determined as 0.0712.

With ATTTACGA, the binding signal (normalized occupancy) worked out at 0.0753.

ATCGGAGC: the binding signal (normalized occupancy) was found to be 0.0669.

For the sequence ACGTGGCC, the binding signal (normalized occupancy) came out at 0.094.

On to CGTAGGAG, for which the binding signal (normalized occupancy) is 0.0692.

On to CTCTACCC, for which the binding signal (normalized occupancy) stood at 0.0753.

Turning to CACCTTAA, the binding signal (normalized occupancy) is 0.0763.

In the case of GGCAACGA, the binding signal (normalized occupancy) is 0.0726.

On to GTACCGAC, for which the binding signal (normalized occupancy) was 0.0693.

Turning to CGCGCAAG, the binding signal (normalized occupancy) was determined as 0.0678.

As for AGATGGCT, the binding signal (normalized occupancy) was found to be 0.0821.

Consider GGACGAAA, for which the binding signal (normalized occupancy) is 0.0678.

For CGTTCTAC, the binding signal (normalized occupancy) came to 0.0752.

Turning to CACATATA, the binding signal (normalized occupancy) is 0.0878.

Take AACTCGAG: the binding signal (normalized occupancy) worked out at 0.0767.

For the sequence GAGTAAGC, the binding signal (normalized occupancy) is 0.072.

For TACGCGAA, the binding signal (normalized occupancy) turned out to be 0.0699.

For AGGACGCC, the binding signal (normalized occupancy) worked out at 0.0678.

Turning to CGCTCCCA, the binding signal (normalized occupancy) amounted to 0.0722.

As to CTACAATC, the binding signal (normalized occupancy) was 0.0744.

On to AACCCGTC, for which the binding signal (normalized occupancy) came to 0.0785.

Take GGCCTCAA: the binding signal (normalized occupancy) stood at 0.0706.

Take AGGCGTGC: the binding signal (normalized occupancy) was determined as 0.0963.

Turning to ACCTATCG, the binding signal (normalized occupancy) worked out at 0.0765.

With AATGCTCC, the binding signal (normalized occupancy) turned out to be 0.0717.

For the sequence GTGCCATA, the binding signal (normalized occupancy) was determined as 0.0859.

Consider GTACCCCA, for which the binding signal (normalized occupancy) was 0.0809.

For AGGGGAAC, the binding signal (normalized occupancy) turned out to be 0.0733.

On to CGAGGCGC, for which the binding signal (normalized occupancy) was found to be 0.0686.

Regarding CTTCTTGC, the binding signal (normalized occupancy) stood at 0.072.

On to CGGAGATA, for which the binding signal (normalized occupancy) amounted to 0.0723.

As for GGCAAGAA, the binding signal (normalized occupancy) was 0.0731.

As to GTCGCTTA, the binding signal (normalized occupancy) was determined as 0.0717.

Turning to AACAACCT, the binding signal (normalized occupancy) is 0.0766.

With ACTGTCCC, the binding signal (normalized occupancy) worked out at 0.073.

Regarding CGTCGTTA, the binding signal (normalized occupancy) stood at 0.0753.

Turning to CGCCGTTC, the binding signal (normalized occupancy) came out at 0.0719.

Take GTGTACAC: the binding signal (normalized occupancy) was 0.0784.

TATCTAAA: the binding signal (normalized occupancy) was 0.0766.

On to AATTGATA, for which the binding signal (normalized occupancy) stood at 0.0754.

Consider GAACTGAA, for which the binding signal (normalized occupancy) amounted to 0.0697.

Consider CACCCATG, for which the binding signal (normalized occupancy) is 0.1.

Turning to CGAGTTTA, the binding signal (normalized occupancy) stood at 0.0726.

As to CGGTCGAA, the binding signal (normalized occupancy) is 0.0683.

In the case of CATGCCCA, the binding signal (normalized occupancy) turned out to be 0.0953.

ACCTGCAA: the binding signal (normalized occupancy) stood at 0.0779.

In the case of GTGGCAGA, the binding signal (normalized occupancy) came to 0.085.

Consider GCTACAGA, for which the binding signal (normalized occupancy) amounted to 0.0764.

Turning to CAAGGCAC, the binding signal (normalized occupancy) worked out at 0.0689.

Consider GCGATTAA, for which the binding signal (normalized occupancy) was 0.0741.

For the sequence ACCCGGGC, the binding signal (normalized occupancy) is 0.069.

Consider AACCTTAC, for which the binding signal (normalized occupancy) was determined as 0.0724.

Regarding GAGTGCGA, the binding signal (normalized occupancy) was determined as 0.073.

Consider ACAACAAA, for which the binding signal (normalized occupancy) was found to be 0.0724.

In the case of GACTCCAA, the binding signal (normalized occupancy) is 0.0705.

Consider ACTCGTTC, for which the binding signal (normalized occupancy) was 0.0746.

Consider CAGTTTGA, for which the binding signal (normalized occupancy) was 0.0703.

On to TAGCACCA, for which the binding signal (normalized occupancy) came to 0.0737.

Consider AGTGCGTC, for which the binding signal (normalized occupancy) worked out at 0.0753.

Turning to CTGGTGAA, the binding signal (normalized occupancy) came out at 0.0729.

Turning to ATGATGTC, the binding signal (normalized occupancy) worked out at 0.0854.

AAGCTGGT: the binding signal (normalized occupancy) was 0.0639.

For the sequence GGAGCGCC, the binding signal (normalized occupancy) amounted to 0.064.

Turning to CCACATAA, the binding signal (normalized occupancy) was determined as 0.0799.

As to AGTTCCCC, the binding signal (normalized occupancy) came to 0.0718.

CACTTGTC: the binding signal (normalized occupancy) was determined as 0.0792.

On to TAACATGA, for which the binding signal (normalized occupancy) stood at 0.0906.

For the sequence ATGGGCTC, the binding signal (normalized occupancy) amounted to 0.0751.

As for CATATGGA, the binding signal (normalized occupancy) worked out at 0.095.

Consider GTCGTCTA, for which the binding signal (normalized occupancy) is 0.0703.

For the sequence AAGAAATC, the binding signal (normalized occupancy) came out at 0.0706.

In the case of GGATCATA, the binding signal (normalized occupancy) turned out to be 0.0808.

In the case of CCTTCGTA, the binding signal (normalized occupancy) is 0.0697.

As to AATTTTTA, the binding signal (normalized occupancy) amounted to 0.0734.

As to AAGCGCCG, the binding signal (normalized occupancy) was 0.0648.

For ACTGATAG, the binding signal (normalized occupancy) amounted to 0.0744.

With TAAACAAA, the binding signal (normalized occupancy) is 0.078.

For the sequence CTACGAGC, the binding signal (normalized occupancy) is 0.0711.

Turning to AACTCATC, the binding signal (normalized occupancy) came out at 0.0815.

On to ATGCGGGA, for which the binding signal (normalized occupancy) turned out to be 0.0837.

Turning to GCGGTACC, the binding signal (normalized occupancy) turned out to be 0.0716.

Regarding CGTCTAGC, the binding signal (normalized occupancy) is 0.0671.

As to AGGCATAG, the binding signal (normalized occupancy) turned out to be 0.0784.

As to ACGCGGAA, the binding signal (normalized occupancy) is 0.0749.

As for CAGTGGTC, the binding signal (normalized occupancy) amounted to 0.0694.

As to AGAATTAG, the binding signal (normalized occupancy) stood at 0.0746.

For the sequence CCAATTAG, the binding signal (normalized occupancy) is 0.0733.

As to AGTATCCA, the binding signal (normalized occupancy) was 0.0751.

On to CCTTTCAC, for which the binding signal (normalized occupancy) stood at 0.0737.

Regarding AAAAAGTT, the binding signal (normalized occupancy) amounted to 0.0686.

For the origin of these results see PMC4242493.
